Laboratory results as given in patent US20260124217A1 (priority 2024, published 2026).

Key:
[1] = tested on: E. coli MegaX expressing Tet(X7); type: cell-based
[2] = tested on: E. coli MegaX expressing Tet(50); type: cell-based

## Cc1c2c(c(O)c3c(O)cccc13)C(=O)[C@]1(O)C(=O)C(C(N)=O)=C(O)[C@@H](N(C)C)[C@@H]1C2 [aTC, anhydrotetracycline]
[1]
  concentration giving complete inhibition of bacterial growth: 32 µg/mL
[2]
  concentration giving complete inhibition of bacterial growth: 8 µg/mL

## Cc1c2c(c(O)c3c(O)c(NC(=O)c4ccc([N+](=O)[O-])cc4)ccc13)C(=O)[C@]1(O)C(=O)C(C(N)=O)=C(O)[C@@H](N(C)C)[C@@H]1C2 [compound 14, (4S,4aS,12aS)-9-(4-nitrobenzamido)-4-(dimethylamino)-3,10,11,12a-tetrahydroxy-6-methyl-1,12-dioxo-1,4,4a,5,12,12a-hexahydrotetracene-2-carboxamide]
[1]; TC fixed at 16 μg/mL, Tet(X7) strain, vs no inhibitor
  concentration giving significantly lower growth rate: 2 µg/mL
